{"source": "paper PMC4336329", "about": "(PLoS ONE, 2015)", "note": "Screen size: about 310,000 compounds; about 2,200 (0.71%) showed an effect of 50% or more. Effects have a minus sign here. The list shows a part of the results.", "data": [{"target": "human ether-à-go-go-related gene (hERG) potassium channel (human, UniProt Q12809)", "sequence (Q12809 whole entry, looked up)": "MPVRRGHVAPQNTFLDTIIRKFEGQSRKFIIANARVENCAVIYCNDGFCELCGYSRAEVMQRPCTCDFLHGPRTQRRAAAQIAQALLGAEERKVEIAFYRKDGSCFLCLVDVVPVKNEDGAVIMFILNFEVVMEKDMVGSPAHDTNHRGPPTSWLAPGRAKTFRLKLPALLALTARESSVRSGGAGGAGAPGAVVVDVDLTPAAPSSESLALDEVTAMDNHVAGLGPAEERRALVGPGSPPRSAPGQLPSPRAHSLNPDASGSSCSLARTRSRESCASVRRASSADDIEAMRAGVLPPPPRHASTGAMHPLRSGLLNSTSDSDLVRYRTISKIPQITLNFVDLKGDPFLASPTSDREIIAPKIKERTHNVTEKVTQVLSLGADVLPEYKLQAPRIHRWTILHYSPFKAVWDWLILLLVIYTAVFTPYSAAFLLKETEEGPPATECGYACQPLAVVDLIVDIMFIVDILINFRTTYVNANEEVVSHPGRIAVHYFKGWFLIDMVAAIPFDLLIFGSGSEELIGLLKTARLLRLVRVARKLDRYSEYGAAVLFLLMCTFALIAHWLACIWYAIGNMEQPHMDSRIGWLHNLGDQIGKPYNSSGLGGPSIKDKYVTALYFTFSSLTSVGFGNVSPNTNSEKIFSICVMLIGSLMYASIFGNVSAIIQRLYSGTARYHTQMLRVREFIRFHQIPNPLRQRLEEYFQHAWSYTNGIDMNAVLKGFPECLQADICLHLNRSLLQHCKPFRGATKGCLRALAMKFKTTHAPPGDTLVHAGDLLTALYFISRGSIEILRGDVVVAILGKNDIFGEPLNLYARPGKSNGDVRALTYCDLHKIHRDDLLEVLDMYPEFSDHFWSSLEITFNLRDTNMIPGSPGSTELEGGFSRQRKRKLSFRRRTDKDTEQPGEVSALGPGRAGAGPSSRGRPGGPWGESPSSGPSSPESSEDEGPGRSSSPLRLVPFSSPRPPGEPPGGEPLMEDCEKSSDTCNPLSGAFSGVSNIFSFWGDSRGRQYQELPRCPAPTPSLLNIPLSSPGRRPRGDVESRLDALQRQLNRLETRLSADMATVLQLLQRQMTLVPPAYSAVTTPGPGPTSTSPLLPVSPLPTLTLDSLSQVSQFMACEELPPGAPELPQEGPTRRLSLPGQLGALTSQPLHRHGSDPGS", "assay": "primary screen, population patch clamp on CHO cells stably expressing hERG", "units": {"hERG current change (%, negative = inhibition) at 1uM": "%"}, "values": [{"compound": "CS(=O)(=O)N1N=C(c2ccc(Cl)cc2)CC1c1cccs1", "note": "(centres unmarked)", "hERG current change (%, negative = inhibition) at 1uM": -2.58}, {"compound": "Cc1nnc(N2C(=O)C(O)=C(C(=O)c3ccco3)C2c2ccc(F)cc2)s1", "note": "(centres unmarked)", "hERG current change (%, negative = inhibition) at 1uM": 13.9}, {"compound": "CCCCSC1=C(C#N)C(c2ccccc2C)C(C(=O)OCC)C(=O)N1", "note": "(centres unmarked)", "hERG current change (%, negative = inhibition) at 1uM": 19.4}, {"compound": "COc1ccc(NC(=O)CSCC(=O)N(C)Cc2cccc(OC)c2OC)cc1", "hERG current change (%, negative = inhibition) at 1uM": 0.451}, {"compound": "COc1ccc(CCNC(=O)C2CC3Cn4c(nc5cc(C)c(C)cc54)C3N2C)cc1", "note": "(centres unmarked)", "hERG current change (%, negative = inhibition) at 1uM": -4.22}, {"compound": "Cc1cc(C)cc(NC(=S)NCc2ccc3[nH]c4c(c3c2)CCCC4)c1", "hERG current change (%, negative = inhibition) at 1uM": 19.2}, {"compound": "O=C(NCc1nnc2c(C(F)(F)F)cc(Cl)cn12)c1ccc(Br)o1", "hERG current change (%, negative = inhibition) at 1uM": 13}, {"compound": "CCOc1cc(CNc2ccc3c(c2)OCCO3)cc(Br)c1OC", "hERG current change (%, negative = inhibition) at 1uM": 8.44}, {"compound": "COc1ccc(OCCCC(=O)OCC(=O)c2ccc3c(c2)NC(=O)CO3)cc1", "hERG current change (%, negative = inhibition) at 1uM": 11.9}, {"compound": "COc1ccccc1N1CCN(C(=O)C(C)N(c2ccc(C)cc2)S(C)(=O)=O)CC1", "note": "(centres unmarked)", "hERG current change (%, negative = inhibition) at 1uM": 4.36}, {"compound": "CCC(C)c1ccccc1OCCCNC1CCCC1.O=C(O)C(=O)O", "note": "(centres unmarked)", "hERG current change (%, negative = inhibition) at 1uM": 1.26}, {"compound": "CCSc1oc(-c2ccco2)nc1S(=O)(=O)c1ccccc1", "hERG current change (%, negative = inhibition) at 1uM": 6.59}, {"compound": "OC(CNC1CCCCC1)C(F)(F)F", "note": "(centres unmarked)", "hERG current change (%, negative = inhibition) at 1uM": 3.47}, {"compound": "O=C(NCC(=O)N1CCN(S(=O)(=O)/C=C/c2ccccc2)CC1)c1ccccc1F", "hERG current change (%, negative = inhibition) at 1uM": 17.7}, {"compound": "CN1CCc2nc(SCC(=O)Nc3ccc(Cl)cc3)c(C#N)cc2C1", "hERG current change (%, negative = inhibition) at 1uM": -5.05}, {"compound": "CC(C)=CCN1CCN(Cc2cccnc2)CC1CCO", "note": "(centres unmarked)", "hERG current change (%, negative = inhibition) at 1uM": 10.2}, {"compound": "CCOC(=O)C1=C(C)OC(N)=C(C#N)C1c1cncc(-c2ccc(F)cc2)c1", "note": "(centres unmarked)", "hERG current change (%, negative = inhibition) at 1uM": -1.64}, {"compound": "O=C(Cc1c(F)cccc1Cl)NCc1cccnc1", "hERG current change (%, negative = inhibition) at 1uM": 14.9}, {"compound": "CCN1CCN(C(=O)c2c(-c3ccccc3)noc2C)CC1", "hERG current change (%, negative = inhibition) at 1uM": 9.87}, {"compound": "CCCN(CC(=O)Nc1ccccc1C)C(=O)c1ccc2ccccc2n1", "hERG current change (%, negative = inhibition) at 1uM": 8.04}, {"compound": "COCCNC(=O)C1CC2Cn3c(nc4cc(C)c(C)cc43)C2N1C", "note": "(centres unmarked)", "hERG current change (%, negative = inhibition) at 1uM": 1.97}, {"compound": "CC1(C)NC(=O)N(CCOCCSc2ccccc2)C1=O", "hERG current change (%, negative = inhibition) at 1uM": 5.85}, {"compound": "O=S(=O)(NCc1ccc2c(c1)OCO2)c1ccc(F)c(F)c1", "hERG current change (%, negative = inhibition) at 1uM": 2.68}, {"compound": "CC(=O)c1ccc(S(=O)(=O)N2CCc3ccccc3C2)cc1", "hERG current change (%, negative = inhibition) at 1uM": 12.6}, {"compound": "Cn1c(=O)c(=O)n(C)c2cc(S(=O)(=O)NCCOc3ccccc3Cl)ccc21", "hERG current change (%, negative = inhibition) at 1uM": 10.1}, {"compound": "CCOC(=O)N1CCN(C(=O)CSCC(=O)Nc2nc(-c3ccc(Cl)s3)cs2)CC1", "hERG current change (%, negative = inhibition) at 1uM": -6.91}, {"compound": "Cc1ccc(S(=O)(=O)N(CC(=O)N2CCC(C)CC2)c2cccc(C)c2)cc1", "hERG current change (%, negative = inhibition) at 1uM": -1.89}, {"compound": "CCOC(=O)CN1N=C(c2ccc(Cl)s2)CSC1=O", "hERG current change (%, negative = inhibition) at 1uM": 18.8}, {"compound": "Cc1ccc(CNC(=O)NCc2ccccc2)cc1", "hERG current change (%, negative = inhibition) at 1uM": 13.4}, {"compound": "C=CCOc1cccc(CNc2ccc3[nH]c(=O)[nH]c3c2)c1", "hERG current change (%, negative = inhibition) at 1uM": 8.06}, {"compound": "Cc1ccc2nc(C)c(C(=O)N/N=C/c3ccc(N4CCOCC4)cc3)cc2c1", "hERG current change (%, negative = inhibition) at 1uM": 0.121}, {"compound": "CCOC(=O)CCCNC(=O)COC(=O)c1cc2ccccc2cc1O", "hERG current change (%, negative = inhibition) at 1uM": 7.61}, {"compound": "COc1ccc(-c2noc(CN(C)S(=O)(=O)c3ccc(Cl)cc3)n2)cc1OC", "hERG current change (%, negative = inhibition) at 1uM": -11.5}, {"compound": "CC1CC(C)(C)NCc2ccccc21.Cl", "note": "(centres unmarked)", "hERG current change (%, negative = inhibition) at 1uM": 15.1}, {"compound": "Cn1c2ccccc2c(=O)c2cc(C#Cc3ccccn3)ccc21", "hERG current change (%, negative = inhibition) at 1uM": 13.5}, {"compound": "Cc1ccc(C(=O)C2=C(O)C(=O)N(Cc3cccnc3)C2c2cccc([N+](=O)[O-])c2)o1", "note": "(centres unmarked)", "hERG current change (%, negative = inhibition) at 1uM": -5.85}, {"compound": "CC(=O)c1ccc(Nc2nc(C)cc(C)n2)cc1", "hERG current change (%, negative = inhibition) at 1uM": 8.03}, {"compound": "COc1ccc(C2CCN(Cc3cccnc3)CC2O)cc1", "note": "(centres unmarked)", "hERG current change (%, negative = inhibition) at 1uM": -1.46}, {"compound": "COc1cccc(CN2CCN(C(=O)Nc3ccc([N+](=O)[O-])cc3)CC2)c1", "hERG current change (%, negative = inhibition) at 1uM": -19.8}, {"compound": "COc1ccccc1NC(=O)c1ccc(NC(=O)CNC(=O)c2ccc(OC)c(OC)c2)cc1", "hERG current change (%, negative = inhibition) at 1uM": 7.95}, {"compound": "COc1cc2c(cc1OC)C(C1c3cc4c(cc3CCN1C)OCO4)OC2=O", "note": "(centres unmarked)", "hERG current change (%, negative = inhibition) at 1uM": 15.2}, {"compound": "COc1ccc(-c2nc(CS(=O)(=O)CC(=O)NCCCc3ccccc3)c(C)o2)cc1", "hERG current change (%, negative = inhibition) at 1uM": 4.47}, {"compound": "O=C(CNS(=O)(=O)c1ccc2ccccc2c1)Nc1ccc(F)c(F)c1F", "hERG current change (%, negative = inhibition) at 1uM": 1.87}, {"compound": "O=C(O)CN1C(=O)/C(=C\\c2cn(-c3ccccc3)nc2-c2ccccc2)SC1=S", "hERG current change (%, negative = inhibition) at 1uM": 4.47}, {"compound": "C=C(C)C(=O)N1CC2(CC(c3cccc(NC(=O)CCCCC)c3)=NO2)C[C@H]1C(N)=O", "note": "(some centres unmarked)", "hERG current change (%, negative = inhibition) at 1uM": 7.28}, {"compound": "O=C(O)CSc1nnc(CNc2ccc(Cl)cc2)n1Cc1ccccc1", "hERG current change (%, negative = inhibition) at 1uM": -16.2}, {"compound": "CCO[C@H]1OC(C(=O)N2CCN(Cc3ccc4c(c3)OCO4)CC2)=C[C@@H](C2CCCCC2)[C@@H]1CCCO", "hERG current change (%, negative = inhibition) at 1uM": -9.87}, {"compound": "CCOCCCNC(=S)N1CCC(NC(=O)C2CCCCC2)CC1", "hERG current change (%, negative = inhibition) at 1uM": 12}, {"compound": "O=C(c1ccncc1)N1CCN(C(=O)c2cccs2)CC1", "hERG current change (%, negative = inhibition) at 1uM": 10.9}, {"compound": "COc1cc(/C=N/N2C(=O)c3ccccc3C2=O)ccc1O", "hERG current change (%, negative = inhibition) at 1uM": 5.98}, {"compound": "Cc1ccc2c(nc3s/c(=C\\c4ccc(-c5ccccc5C(=O)O)o4)c(=O)n32)c1C", "hERG current change (%, negative = inhibition) at 1uM": 11.6}, {"compound": "COc1ccc(CCNC(=O)[C@@H](NC(=O)c2ccccc2F)C(C)C)cc1OC", "hERG current change (%, negative = inhibition) at 1uM": 3.87}, {"compound": "Cc1c(CC(=O)NCCCCCC(=O)O)c(=O)oc2cc3occ(-c4ccccc4)c3cc12", "hERG current change (%, negative = inhibition) at 1uM": 13.1}, {"compound": "CCCCOCCCN1CC(=O)N2[C@@H](Cc3c([nH]c4ccccc34)C2(C)C)C1=O", "hERG current change (%, negative = inhibition) at 1uM": 11.6}, {"compound": "CN(Cc1cnccn1)C(=O)CC1C(=O)NCCN1Cc1cccc(F)c1", "note": "(centres unmarked)", "hERG current change (%, negative = inhibition) at 1uM": 5.09}, {"compound": "COc1ccccc1CN1CCC(CNS(=O)(=O)c2cc(-c3cc(C)no3)ccc2C)CC1", "hERG current change (%, negative = inhibition) at 1uM": -22}]}]}
